Test results taken from PubChem BioAssay AID1259400 (National Center for Advancing Translational Sciences (NCATS), 2018).
Where “and” joins values, the source holds several entries; their conditions need not be identical. Equal values may be shown once. The campaign covered roughly 350,000 compounds. About 2,100 (0.6%) were called active. Inconclusive results, whose numbers are uncertain, are shown with a selection of clear calls.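 The calls were made as follows: active = activity change of -60% or lower, but not beyond a set lower limit; inconclusive = change between -60% and -40%, or beyond the set limit; inactive = change above -40%.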 Some compounds were tested as several samples or in several runs, with calls that do not always agree.
% is scaled to controls: 0 for no effect and ±100 for the full control effect.

What follows are compounds tested against Relaxin receptor 1 (Homo sapiens) (UniProt Q9HBX9) (assay: qHTS Assay for Antagonists of the Relaxin Receptor RXFP1). Details: HEK293-RXFP1, relaxin-stimulated cAMP HTRF, 30 min; at 57.5 µM; stronger effect = lower value.
Sequence of UniProt Q9HBX9 (Q9HBX9 whole entry, looked up): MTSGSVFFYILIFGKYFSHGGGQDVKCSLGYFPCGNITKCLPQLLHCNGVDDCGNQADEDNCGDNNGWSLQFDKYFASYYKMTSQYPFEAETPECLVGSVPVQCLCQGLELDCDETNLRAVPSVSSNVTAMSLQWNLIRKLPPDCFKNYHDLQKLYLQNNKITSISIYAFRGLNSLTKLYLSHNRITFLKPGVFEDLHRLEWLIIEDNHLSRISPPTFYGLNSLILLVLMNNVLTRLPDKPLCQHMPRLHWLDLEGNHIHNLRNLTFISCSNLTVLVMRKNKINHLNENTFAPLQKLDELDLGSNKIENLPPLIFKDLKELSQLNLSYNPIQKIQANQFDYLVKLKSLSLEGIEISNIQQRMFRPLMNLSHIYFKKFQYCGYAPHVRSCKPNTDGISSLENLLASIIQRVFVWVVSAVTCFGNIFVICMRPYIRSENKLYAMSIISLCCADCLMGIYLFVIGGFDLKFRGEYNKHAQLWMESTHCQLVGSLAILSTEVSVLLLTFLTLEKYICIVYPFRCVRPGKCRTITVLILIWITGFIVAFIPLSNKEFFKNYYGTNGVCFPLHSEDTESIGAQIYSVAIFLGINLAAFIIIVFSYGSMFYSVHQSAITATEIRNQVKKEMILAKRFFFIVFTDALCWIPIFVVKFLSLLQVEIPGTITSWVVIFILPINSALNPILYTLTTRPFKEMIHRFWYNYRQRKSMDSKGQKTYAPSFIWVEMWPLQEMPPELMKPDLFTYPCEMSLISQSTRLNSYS
In the case of `Fc1ccc(C(OCCN2CCN(CCCc3ccccc3)CC2)c2ccc(F)cc2)cc1`, the activity change, negative = inhibition is reported as active: -72.7%. With `CCCOP(=O)(OCCC)C(NC(=O)c1cc(OC)c(OC)c(OC)c1)c1ccccc1` (centres undefined) the activity change, negative = inhibition was inactive: -0.116%. For `O=C(N/N=C/C1C(=O)NC(=S)N(c2ccccc2)C1=O)c1cc(Br)c(O)c(Br)c1` (centres undefined), the activity change, negative = inhibition was inconclusive: -52.8%. For `CC1CCC(C(C)C)C(OC(=O)Cn2c(COc3ccccc3)[n+](C)c3ccccc32)C1` (centres undefined), the activity change, negative = inhibition was inconclusive: -46.2%. With `Oc1c(Cl)cccc1Cc1cc(Cl)cc(Cl)c1O` the activity change, negative = inhibition was active: -110%. In the case of `CCN1/C(=C\C=C\C2=[N+](CC)c3ccccc3C2(C)C)C(C)(C)c2ccccc21`, the activity change, negative = inhibition is reported as active: -72.6%. `CN1CCN(c2ccc([N+](=O)[O-])c(Sc3nncn3C)c2)CC1` was tested, and the activity change, negative = inhibition was inconclusive: -42.4%. In the case of `COc1ccc(-n2c(O)c(/C=C3\C=Nc4ccc(Br)cc43)c(=O)[nH]c2=O)c(OC)c1`, the activity change, negative = inhibition is reported as active: -71.2%. In the case of `CC(C)N1C(=O)/C(=C/C=C/c2ccco2)C(=O)N(Cc2ccco2)C1=O`, the activity change, negative = inhibition is reported as active: -76.6%. In the case of `C/C(=N\N1CCN(C)CC1)c1c(O)n(Cc2ccccc2)c(=O)[nH]c1=O`, the activity change, negative = inhibition is reported as inactive: 21.4%. For `Cc1ccccc1N1C(=O)NC(=O)/C(=C\c2ccc3c(c2)CCCN3Cc2ccccc2)C1=O`, the activity change, negative = inhibition was inconclusive: -53.8%. With `Oc1cc(Cl)ccc1Oc1ccc(Cl)cc1Cl` the activity change, negative = inhibition was inactive: -36.1% and active: -76.9%. With `CCN(CC)c1ccc(CNCCc2ccccc2F)cc1` the activity change, negative = inhibition was inconclusive: -54.4%. In the case of `C[n+]1c2ccccc2nc2ccc(NCCO)cc21`, the activity change, negative = inhibition is reported as inactive: -38.5%. With `O=C(c1ccc(Cl)cc1)C1CCCN(Cc2ccc3c(c2)OCCO3)C1` (centres undefined) the activity change, negative = inhibition was active: -73.4%. For `O=C1NC(=O)N(CCc2ccc(F)cc2)C(=O)/C1=C/c1ccco1`, the activity change, negative = inhibition was inconclusive: -51.8%. In the case of `C=CCN1C(=O)NC(=O)/C(=C\c2ccc(-c3ccccc3[N+](=O)[O-])o2)C1=O`, the activity change, negative = inhibition is reported as active: -101%. With `O=c1[nH]c(=S)[nH]c(O)c1N=Nc1ccc(SC(F)F)cc1` the activity change, negative = inhibition was active: -70.7%. With `O=c1ccc2cc(O[C@@H]3O[C@@H](CO)[C@H](O)[C@@H](O)[C@@H]3O)c(O)cc2o1` the activity change, negative = inhibition was inactive: -2.33%. With `c1ccc(CC(NCc2ccco2)c2ccccc2)cc1` (centres undefined) the activity change, negative = inhibition was inconclusive: -43.4%. For `CCC(=O)c1cn(Cc2ccccc2C#N)c2ccccc12`, the activity change, negative = inhibition was inactive: 11.1%. In the case of `O=c1c2ccccc2[nH]c(=S)n1-c1cccc(Cl)c1`, the activity change, negative = inhibition is reported as inconclusive: -40.6%. For `O=C1CN=C(c2ccc(Cl)cc2)c2oc3ccccc3c2N1`, the activity change, negative = inhibition was inconclusive: -47.6%. In the case of `Cc1cc(N2CCOCC2)nc2ccc(NC(=O)CCC(=O)N3CCC4(CC3)OCCO4)cc12`, the activity change, negative = inhibition is reported as inactive: -9.64%.
